Experimental data reported in the supplement of paper PMC9446081.
Screen size: about 39,000 compounds; about 220 (0.56%) showed activity. The list shows a part of the results.

System: Escherichia coli K-12 BW25113
Assay: relative growth (OD600 normalised to plate interquartile mean) (fraction); higher = less growth inhibition, active = 0.2 or less
Conditions: 50 µM; LB; incubation time: overnight (16-24 h)
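Note: static incubation at 37 °C against the wild-type strain, values averaged over two biological replicates.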

Row | SMILES | relative growth
1 | COc1cccc(S(=O)(=O)N2C[C@@H](O)COC[C@H]3O[C@@H](CC(=O)N4CCN(c5ccccc5)CC4)CC[C@@H]32)c1 | inactive: 0.995
2 | COc1ccc(NC(=O)N(C)C[C@@H]2Oc3c(NC(=O)c4cc(C)nn4C)cccc3C(=O)N([C@H](C)CO)C[C@H]2C)cc1 | inactive: 0.995
3 | COc1ccc(NC(=O)N(C)C[C@H]2Oc3ccc(NC(=O)CCN4CCOCC4)cc3C(=O)N([C@@H](C)CO)C[C@H]2C)cc1 | inactive: 0.952
4 | Cc1noc(C)c1NC(=O)N(C)C[C@@H]1OCCCC[C@@H](C)Oc2ccc(NS(=O)(=O)c3ccccc3)cc2C(=O)N([C@@H](C)CO)C[C@H]1C | inactive: 0.999
5 | O=C(Cn1cc(COc2ccc(Cl)c(Cl)c2)nn1)NS(=O)(=O)c1cccc(OC(F)F)c1 | inactive: 0.989
6 | C[C@@H]1CCCCO[C@@H](CN(C)Cc2ccc3c(c2)OCO3)[C@@H](C)CN([C@@H](C)CO)C(=O)c2cc(NC(=O)Nc3cccc4ccccc34)ccc2O1 | inactive: 0.993
7 | O=C(CCCCCCC(=O)Nc1ccccc1O)N/N=C/[C@H](O)[C@@H](O)[C@H](O)CO | inactive: 0.999
8 | COc1ccc(CN(C)C[C@H]2OCCCC[C@@H](C)Oc3ccc(NC(=O)Nc4c(C)noc4C)cc3C(=O)N([C@@H](C)CO)C[C@H]2C)cc1 | inactive: 1
9 | COc1ccc(C#Cc2ccc3c(c2)[C@]2(C(=O)N3)[C@H](c3ccccc3OCCO)N3[C@H](c4ccccc4)[C@H](c4ccccc4)OC(=O)[C@H]3[C@@H]2C(=O)N2CCN(c3ncccn3)CC2)cc1 | inactive: 1.1
10 | CC1(C)[C@H]2CC[C@@]1(C(=O)O)C(=O)C2=O | inactive: 0.99
11 | Cc1noc(C)c1NC(=O)Nc1ccc2c(c1)C(=O)N([C@H](C)CO)C[C@H](C)[C@@H](CN(C)C(=O)Nc1ccccc1)OCCCC[C@@H](C)O2 | inactive: 1.01
12 | O=C(NO)c1ccc(-c2cn(CC[C@@H]3OC(=O)[C@H](Cc4ccccc4)N4CC5=CC(=O)[C@H](C6CC6)[C@H]5[C@H]34)nn2)cc1 | inactive: 0.991
13 | C[C@@H]1CN([C@@H](C)CO)C(=O)CCCn2cc(nn2)CO[C@@H]1CN(C)S(=O)(=O)c1ccc(Cl)cc1 | inactive: 1.01
14 | COc1ccc(NC(=O)N(C)C[C@@H]2OCCCC[C@H](C)Oc3ccc(NC(=O)C4CCCCC4)cc3C(=O)N([C@H](C)CO)C[C@H]2C)cc1 | inactive: 0.952
15 | Cc1ccc(S(=O)(=O)N(C)C[C@@H]2OCCCC[C@H](C)Oc3ccc(NC(=O)c4ccccc4)cc3C(=O)N([C@H](C)CO)C[C@H]2C)cc1 | inactive: 0.952
16 | Cc1noc(C)c1NC(=O)Nc1ccc2c(c1)C(=O)N([C@@H](C)CO)C[C@H](C)[C@@H](CN(C)C(=O)Nc1ccc3c(c1)OCO3)OCCCC[C@H](C)O2 | inactive: 0.997
17 | Cc1noc(C)c1S(=O)(=O)Nc1ccc2c(c1)C(=O)N([C@H](C)CO)C[C@H](C)[C@H](CN(C)S(=O)(=O)c1cccs1)O2 | inactive: 1
18 | Cc1cn2c3c(=O)n(C)c(=O)n(C)c3nc2n1CCN1CCOCC1 | inactive: 1.01
19 | CNC(=O)Cn1cc2c(n1)CC[C@H](C)C2 | inactive: 0.976
20 | CNC(=O)[C@H]1O[C@H](n2cnc3c(NCc4cccc(I)c4)ncnc32)[C@@H](O)[C@@H]1O | inactive: 1.02

Row | SMILES | relative growth
21 | C[C@@H]1CN([C@@H](C)CO)C(=O)c2cc(NC(=O)Nc3ccc(F)cc3)ccc2O[C@@H](C)CCCCO[C@H]1CN(C)CC1CCCCC1 | inactive: 0.974
22 | C[C@@H]1CN([C@H](C)CO)C(=O)c2cc(NC(=O)Cc3ccccc3)ccc2O[C@H]1CN(C)S(C)(=O)=O | inactive: 0.991
23 | CCCCCN1CC=C[C@@]23O[C@@H]4C=CCOC(=O)[C@@H]4[C@H]2C(=O)N(CCO)[C@@H]3C1=O | inactive: 1.05
24 | CC(C)C[C@H]1NC(=O)[C@@H](C)NC(=O)[C@@]23C(=O)N[C@@H](Cc4ccccc4)[C@H]2[C@H](C)[C@@]2(C)O[C@H]2[C@@H]3/C=C/C/C=C\CNC1=O | inactive: 1.05
25 | COc1ccc(S(=O)(=O)Nc2ccc3c(c2)C(=O)N([C@H](C)CO)C[C@@H](C)[C@@H](CN(C)S(=O)(=O)c2ccc(Cl)cc2)OCCCC[C@H](C)O3)cc1 | inactive: 1.02
26 | C[C@@H]1CN([C@H](C)CO)C(=O)c2cc(NS(=O)(=O)c3cn(C)cn3)ccc2O[C@H]1CN(C)Cc1ccc(C(=O)Nc2ccccc2N)cc1 | inactive: 1.01
27 | C[C@H](CO)N1C[C@H](C)[C@H](CN(C)C(=O)Nc2ccc(C(F)(F)F)cc2)Oc2ncc(C3=CCCC3)cc2C1=O | inactive: 0.965
28 | C[C@@H]1CN([C@@H](C)CO)C(=O)c2cc(NS(=O)(=O)c3cn(C)cn3)ccc2O[C@@H]1CN(C)C(=O)Nc1ccc2c(c1)OCO2 | inactive: 0.987
29 | O=C(C[C@H]1CC[C@H]2[C@@H](COC[C@H](O)CN2S(=O)(=O)c2cccc(Cl)c2)O1)NCCCN1CCOCC1 | inactive: 0.976
30 | C[C@H]1CN([C@@H](C)CO)C(=O)c2cc(NS(=O)(=O)c3cccs3)ccc2O[C@@H]1CN(C)Cc1ccncc1 | inactive: 0.977
31 | O=C(C[C@@H]1CC[C@H]2[C@@H](COC[C@@H](O)CN2C(=O)Nc2ccc(Cl)c(Cl)c2)O1)NCc1ccc(Cl)c(Cl)c1 | inactive: 0.899
32 | C[C@@H]1CCCCO[C@H](CN(C)S(=O)(=O)c2ccccc2)[C@@H](C)CN([C@@H](C)CO)C(=O)c2cc(NC(=O)C3CCCCC3)ccc2O1 | inactive: 0.995
33 | C[C@@H]1CN([C@@H](C)CO)C(=O)Cc2cc(NS(=O)(=O)c3cccs3)ccc2O[C@H]1CN(C)S(=O)(=O)c1cccs1 | inactive: 1.01
34 | Cc1noc(C)c1NC(=O)Nc1ccc2c(c1)C(=O)N([C@@H](C)CO)C[C@H](C)[C@@H](CN(C)S(=O)(=O)c1ccccc1)O2 | inactive: 0.987
35 | COc1ccc(C(=O)NCC(=O)O)cc1 | inactive: 0.987
36 | COc1ccccc1S(=O)(=O)N[C@@H]1C=C[C@H](CC(=O)N2CCOCC2)O[C@H]1CO | inactive: 0.995
37 | C[C@H](CO)N1C[C@H](C)[C@H](CN(C)S(=O)(=O)c2ccc(F)cc2)Oc2ccc(NC(=O)CCCN(C)C)cc2C1=O | inactive: 0.998
38 | C[C@@H]1CN([C@H](C)CO)C(=O)Cc2cc(NC(=O)CCC(F)(F)F)ccc2O[C@H]1CN(C)Cc1ccc(C(=O)Nc2ccccc2N)cc1 | inactive: 0.982
39 | CO[C@H](CN(C)S(=O)(=O)c1cccc(Cl)c1)[C@@H](C)CN([C@@H](C)CO)S(=O)(=O)c1ccc(Cl)cc1 | inactive: 1.03
40 | O=C(C[C@@H]1CC[C@@H](NC(=O)Nc2ccc3c(c2)OCO3)[C@H](CO)O1)NCCCN1CCOCC1 | inactive: 0.985

Row | SMILES | relative growth
41 | CO[C@H]1CN(C)C(=O)c2ccc(NS(=O)(=O)CC(F)(F)F)cc2OC[C@H](C)N(Cc2cccnc2)C[C@@H]1C | inactive: 1.02
42 | C[C@@H]1CCCCO[C@H](CN(C)Cc2ccccc2)[C@@H](C)CN([C@H](C)CO)C(=O)c2cc(NC(=O)c3ccccc3)ccc2O1 | inactive: 1.02
43 | COCn1c(=O)[nH]c2ccccc21 | inactive: 0.968
44 | Cc1nccn1-c1cccc(CN)c1 | inactive: 1.01
45 | CO[C@@H]1CN(C)C(=O)c2ccc(NC(=O)c3ccc(F)cc3)cc2OC[C@H](C)N(C(=O)CN(C)C)C[C@H]1C | inactive: 1
46 | C[C@@H]1CN([C@@H](C)CO)C(=O)c2cc(NC(=O)CCC(F)(F)F)ccc2O[C@@H](C)CCCCO[C@H]1CN(C)Cc1ccc(Cl)c(Cl)c1 | inactive: 1.06
47 | COc1ccc(NC(=O)Nc2ccc3c(c2)CC(=O)N([C@@H](C)CO)C[C@H](C)[C@H](CN(C)Cc2ccc(C(=O)Nc4ccccc4N)cc2)O3)cc1 | inactive: 0.99
48 | CCCNC(=O)N1C[C@@H](O)COC[C@@H]2O[C@H](CC(=O)NCc3ccncn3)CC[C@H]21 | inactive: 1.01
49 | C[C@H](CO)N1C[C@H](C)[C@@H](CN(C)CC2CCCCC2)Oc2ccc(NC(=O)Cc3cn(C)c4ccccc34)cc2C1=O | inactive: 0.979
50 | COc1ccc(NC(=O)Nc2ccc3c(c2)C(=O)N([C@@H](C)CO)C[C@H](C)[C@H](CN(C)Cc2ccc(C(=O)Nc4ccccc4N)cc2)O3)cc1 | inactive: 1
51 | COc1ccsc1C(N)=O | inactive: 0.993
52 | Cc1noc(C)c1S(=O)(=O)N(C)C[C@H]1Oc2c(NS(=O)(=O)c3ccccc3)cccc2C(=O)N([C@@H](C)CO)C[C@H]1C | inactive: 1.02
53 | C[C@H]1CN([C@@H](C)CO)C(=O)Cc2cc(NS(=O)(=O)c3ccc(Cl)cc3)ccc2O[C@@H]1CN(C)C | inactive: 0.986
54 | O=c1nc[nH]c2c1ncn2[C@@H]1O[C@H](CO)[C@@H](O)[C@H]1O | inactive: 1.03
55 | C[C@@H]1CCCCO[C@H](CN(C)CC2CCCCC2)[C@H](C)CN([C@H](C)CO)C(=O)c2cc(NC(=O)Nc3ccc(F)cc3)ccc2O1 | inactive: 0.984
56 | C[C@H]1CN([C@@H](C)CO)C(=O)c2cc(C#CCN(C)C)cnc2O[C@H]1CN(C)S(C)(=O)=O | inactive: 1.01
57 | C[C@H]1CN([C@@H](C)CO)C(=O)c2cccc(NC(=O)Nc3ccc(C(F)(F)F)cc3)c2O[C@@H]1CN(C)Cc1ccc2c(c1)OCO2 | inactive: 0.829
58 | CCCCCCCCCCCCCCCCCCCCCCCCCCCCO | inactive: 1.01
59 | COc1ccc(C(=O)c2ccc(C)cc2)c(O)c1 | inactive: 1.01
60 | C[C@H](CO)N1C[C@H](C)[C@@H](CN(C)C(=O)Nc2cccc3ccccc23)Oc2ccc(NC(=O)CCC(F)(F)F)cc2CC1=O | inactive: 1.03
